According to PMC4336329 (PLoS ONE, 2015):
The campaign covered roughly 310,000 compounds. About 2,200 (0.71%) showed an effect of 50% or more. Effects have a minus sign here. This is one part of the list.

What follows are compounds tested against human ether-à-go-go-related gene (hERG) potassium channel (human, UniProt Q12809) (assay: primary screen, population patch clamp on CHO cells stably expressing hERG).
Chain of human ether-à-go-go-related gene (hERG) potassium channel (Q12809 whole entry, looked up): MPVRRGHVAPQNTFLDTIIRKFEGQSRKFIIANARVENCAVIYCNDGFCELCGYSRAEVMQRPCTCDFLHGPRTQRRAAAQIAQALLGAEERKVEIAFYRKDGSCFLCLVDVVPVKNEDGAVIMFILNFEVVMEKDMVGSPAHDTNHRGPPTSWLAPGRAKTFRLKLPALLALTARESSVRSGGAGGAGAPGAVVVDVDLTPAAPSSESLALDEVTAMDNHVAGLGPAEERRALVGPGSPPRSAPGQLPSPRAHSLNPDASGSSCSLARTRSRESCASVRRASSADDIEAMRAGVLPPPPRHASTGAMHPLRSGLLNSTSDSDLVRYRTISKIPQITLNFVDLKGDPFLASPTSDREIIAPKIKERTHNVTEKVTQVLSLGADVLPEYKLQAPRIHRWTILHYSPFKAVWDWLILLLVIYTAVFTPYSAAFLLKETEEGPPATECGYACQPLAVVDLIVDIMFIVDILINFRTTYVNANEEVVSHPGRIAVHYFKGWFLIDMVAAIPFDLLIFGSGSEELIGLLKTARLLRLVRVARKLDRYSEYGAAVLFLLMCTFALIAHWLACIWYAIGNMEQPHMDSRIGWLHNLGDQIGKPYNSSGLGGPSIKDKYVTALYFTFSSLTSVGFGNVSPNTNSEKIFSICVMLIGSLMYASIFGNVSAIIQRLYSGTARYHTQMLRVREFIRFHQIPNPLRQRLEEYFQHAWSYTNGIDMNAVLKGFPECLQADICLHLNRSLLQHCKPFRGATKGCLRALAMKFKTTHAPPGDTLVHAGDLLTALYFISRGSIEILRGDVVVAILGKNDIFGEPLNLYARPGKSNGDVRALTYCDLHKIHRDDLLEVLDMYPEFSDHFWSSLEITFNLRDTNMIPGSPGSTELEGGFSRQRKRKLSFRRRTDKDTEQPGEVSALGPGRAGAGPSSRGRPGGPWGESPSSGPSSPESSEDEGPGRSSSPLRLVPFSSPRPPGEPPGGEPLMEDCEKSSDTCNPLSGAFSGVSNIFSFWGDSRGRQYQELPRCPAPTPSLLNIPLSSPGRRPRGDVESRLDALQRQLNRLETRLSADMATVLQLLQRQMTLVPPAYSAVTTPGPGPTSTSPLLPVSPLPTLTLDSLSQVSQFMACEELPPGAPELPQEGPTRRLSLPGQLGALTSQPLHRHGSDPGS

| SMILES | hERG current change (%, negative = inhibition) at 1uM [%] |
| --- | --- |
| CCCc1ccc(OCc2ccc(C(=O)N/N=C/c3cccnc3)o2)cc1 | 9.65 |
| CCC(=O)c1ccc(OCC(=O)OCC(=O)NCCC2=CCCCC2)cc1 | 2.8 |
| CC1(C)Oc2nc3ccccc3n2/C1=C\C#N | 9.08 |
| O=C(NC1CCCCC1)C(c1ccc(Cl)cc1)N1CCC2(CC1)OCCO2 (centres unmarked) | 3.06 |
| CC(=O)C(Cc1ccccc1)NC(=O)CN1c2cccc3cccc(c23)S1(=O)=O (centres unmarked) | 16.5 |
| O=C1CN(C(=O)NCC(=O)N[C@@H](C(=O)O)c2ccccc2)c2ccccc2N1 | 4.26 |
| Cc1ccc(OCC(=O)Nc2ccc(S(=O)(=O)N3CCOCC3)cc2)c([N+](=O)[O-])n1 | 8.24 |
| CN(Cc1ccccc1)S(=O)(=O)c1ccc2[nH]c(=O)ccc2c1 | 8.46 |
| CC(C)(C)n1nnnc1C(c1ccc(Cl)cc1)N(Cc1cccnc1)Cc1ccco1 (centres unmarked) | 8.86 |
| Cc1ccc(/C=N/Nc2nc(Cl)c(Cl)cc2Cl)s1 | 14.6 |
| COc1cc(/C=N/NC(=O)NC2CCCCC2)cc(OC)c1O | 5.53 |
| Cc1nc2ccccc2c2c(N)c3ccccc3n12 | 14.4 |
| Cc1c([N+](=O)[O-])c2ccc(O)cc2n1-c1ccccc1 | 8.82 |
| NS(=O)(=O)c1ccc(NC(=O)COC(=O)c2cc(Cl)ccc2[N+](=O)[O-])cc1 | 6.38 |
| COC(=O)c1sc2nc(N3CCCCC3)c3c(c2c1N)CCCC3 | 21.3 |
| O=C1c2cccc3cc([N+](=O)[O-])cc(c23)C(=O)N1c1ccccc1O | 16.2 |
| Cc1nnc(SCC(=O)Nc2cc(S(C)(=O)=O)ccc2Cl)n1Cc1ccccc1 | 11.2 |
| CCc1nnc(NC(=O)CSc2nc3c(cc2C#N)CCCC3)s1 | 15.4 |
| CCN(CCC#N)c1ccc(/C=N/Nc2nc(C)cc(=O)[nH]2)c(C)c1 | -5.5 |
| O=[N+]([O-])c1ccccc1SNc1ccccn1 | 13.6 |
| COc1ccc(NC(=O)COC(=O)C2CC2)c(OC)c1 | -18.4 |
| CC(NS(=O)(=O)c1ccc(Cl)c(Cl)c1)C(=O)OCC(=O)N1CCCCCC1 (centres unmarked) | -9.64 |
| O=C(Nc1ccccc1)c1cc2ccc3ccccc3c2s1 | 15 |

| SMILES | hERG current change (%, negative = inhibition) at 1uM [%] |
| --- | --- |
| CC12CCC(C/C1=N/OC(=O)c1cccc([N+](=O)[O-])c1)C2(C)C (centres unmarked) | 14.6 |
| O=C(Nc1cccnc1)c1ccc(S(=O)(=O)c2ccccc2)cc1 | 12.5 |
| CCN(CC)C(=O)c1cc(Cl)ccc1NC(=O)c1ccco1 | 6.5 |
| O=c1cc(CN2CCc3ccccc3C2)nc2sccn12 | 11.6 |
| CCc1ccc(OCC(=O)N2CC(C(N)=O)Oc3ccccc32)cc1 (centres unmarked) | 9.25 |
| Cc1ccc(NC(=O)CCN2C(=O)C3C4CCC(C4)C3C2=O)cc1[N+](=O)[O-] (centres unmarked) | 7.27 |
| Nc1ccc(C(=O)[O-])cc1.[K+] | 19.1 |
| Cc1ccccc1NC(=O)c1ccc2nccnc2c1 | 4.5 |
| Cc1cccn2c(=O)c3cc(C(=O)NCC4CCCO4)c(=N)n(C4CCCC4)c3nc12 (centres unmarked) | -80.3 |
| OCCSc1ncnc2c1oc1ccccc12 | 6.8 |
| Cc1cccc(NC(=S)NNC(=O)CCn2nc(C)c([N+](=O)[O-])c2C)c1 | 7.94 |
| Cc1cc(NC(=O)C2CC(=O)N(c3ccccc3Cl)C2)no1 (centres unmarked) | 8.84 |
| COCCNc1nc2c(c(=O)n(Cc3cccc(Br)c3)c(=O)n2C)n1C | 9.1 |
| CCc1ccc2nc3nc(C)cc(C)c3c(N)c2c1 | 3.04 |
| COc1cccc(OC)c1C(=O)Nc1ccccc1N1CCCC1 | -4.17 |
| CCN(CC(=O)Nc1ccc(C(=O)OC)cc1)C1CCCCC1 | 16.3 |
| CCOC(=O)c1cc2ccccc2n1CC(=O)c1ccccc1 | 10.1 |
| Cc1cc(/C=C2\C(=O)NC(=O)N(Cc3ccccc3)C2=O)c(C)n1-c1ccc(Cl)c(C(=O)O)c1 | 5.21 |
| O=C1Cc2ccccc2C(=O)N1OCc1ccc(Cl)cc1 | 9.57 |
| CC1CCCC(C)N1C(=O)CN1C(=O)C(C)(C)Oc2ccc(C(=O)NC3CCCCC3)cc21 (centres unmarked) | 8.44 |
| O=C(CSc1nc2[nH]c(=O)cc(O)c2s1)Nc1nccs1 | 11.7 |
| CCCN(CC(=O)Nc1ccccc1OC)C(=O)c1ccc2ncsc2c1 | -0.49 |
| Cc1ccc(S(=O)(=O)N2CCN(S(=O)(=O)N3CCC(C)CC3)CC2)c(C)c1 | 9.41 |

| SMILES | hERG current change (%, negative = inhibition) at 1uM [%] |
| --- | --- |
| CCOC(=O)C1=C(CNCCc2ccc(Cl)cc2)NC(=O)NC1c1cccc([N+](=O)[O-])c1 (centres unmarked) | 15 |
| Cn1c(SCCS(=O)(=O)c2ccc(Cl)cc2)nnc1-c1ccccc1 | 12.8 |
| CNC(=O)Nc1ccc(S(N)(=O)=O)cc1 | 12.3 |
| COCc1c(C(=O)N/N=C/c2cccc3ccccc23)nnn1-c1nonc1N | 8.15 |
| CCC1(C)Cc2nc3[nH]c(=S)n(-c4ccccc4C)c(=O)c3cc2CO1 (centres unmarked) | 13.6 |
| CCC1CCCCN1C(=S)Nc1ccc(S(=O)(=O)Nc2ncccn2)cc1 (centres unmarked) | 7.62 |
| Cc1ccc(S(=O)(=O)N(C)c2ccc(C(=O)Nc3cccc(C)n3)cc2)cc1 | 7.73 |
| COCCN(C(=O)COC(=O)c1c(-c2ccccc2)noc1C)c1c(N)n(Cc2ccccc2)c(=O)[nH]c1=O | -49.1 |
| O=C(Cn1cnc2ccccc21)N/N=C/c1ccccc1[N+](=O)[O-] | 12.8 |
| CCN(CC(=O)Nc1c(F)cccc1F)C(=O)c1ccc(=O)n(Cc2ccccc2)n1 | 7.76 |
| O=C(CN1CCN(C(=O)N2CCOCC2)CC1)Nc1cc(Cl)ccc1Cl | -24.8 |
| Cc1noc(/C=C/N(C)C)c1S(=O)(=O)N1CCCC(C(=O)N2CCc3ccccc32)C1 (centres unmarked) | 11.6 |
| COCc1cc(/C=N\NC(=O)Cc2ccc(Cl)cc2)ccc1OC | -5.99 |
| COc1ccc(C(CCNCc2ccc(N(C)C)cc2)c2ccccc2)cc1 (centres unmarked) | -56.4 |
| O=S(=O)(c1ccc(SCCOc2ccc(Br)cc2)nc1)N1CCCC1 | 9.03 |
| O=C(OCC(=O)c1ccc[nH]1)c1ccc(S(=O)(=O)N2CCCCCC2)cc1 | 6.74 |
| Cc1cc2n(n1)C(c1sccc1C)Nc1c(C)cccc1-2 (centres unmarked) | 1.95 |
| Cc1ccc(O)c(C=Nc2ccc3[nH]ncc3c2)c1 | 1.13 |
| CC(=N/O)/C(=N\O)c1ccc(C)o1 | 8.08 |
| Cc1cc(C(=O)N2CCN(c3ccccc3)CC2)no1 | -1.56 |
| CCOC(=O)N1CCN(C(=O)CCn2c(=S)[nH]c3ccccc3c2=O)CC1 | 18.6 |
| CCCc1nc(-c2ccccc2O)n(-c2ccccc2)n1 | 12.2 |
| CCOC(=O)C1CCN(CC(=O)NC(=O)NC2CCCCC2)CC1 | 6.76 |

| SMILES | hERG current change (%, negative = inhibition) at 1uM [%] |
| --- | --- |
| O=C(NCCN1CCN(Cc2ccccc2)CC1)c1ccc(CS(=O)(=O)c2ccc(Br)cc2)o1 | -50.5 |
| O=C(C1CCC(=O)N1Cc1ccccc1Cl)N1CCN(c2cccc(Cl)c2)CC1 (centres unmarked) | 9.42 |
| Cc1cc(C)n(-c2nc(-c3ccccc3)cs2)n1 | 1.91 |
| C/C(=N/NC(=O)c1cccs1)c1ccc(NC(=O)COc2ccc(Cl)cc2)cc1 | 17.7 |
| Cc1cc2oc(=O)cc(Cn3ncc(Cl)c(Cl)c3=O)c2cc1Cl | 6.36 |
| CN(C)S(=O)(=O)c1cc(NC(=O)CN2CCCc3ccccc32)ccc1Cl | 9.05 |
| CN(C)S(=O)(=O)c1ccc(N2CCCC2)c(C(=O)Nc2ccccc2F)c1 | 9.56 |
| COc1ccc(S(=O)(=O)N2CCCCC2)cc1-n1cnnn1 | 14.3 |
| NC(=O)C1CCN(C(=O)c2cnn(-c3ccccc3)c2NC(=O)c2cccc(F)c2)CC1 | 8.66 |
| CCCCOc1ccc(S(N)(=O)=O)cc1 | 4.44 |
| CCOc1ccccc1NC(=O)Nc1cccc(NC(C)=O)c1 | 9.48 |
| CCS(=O)(=O)c1ccc2oc(Nc3ccccc3Br)nc2c1 | -3.68 |
| Cc1[nH]n(-c2ccccc2)c(=O)c1C=Nc1cnc2ccccc2c1 | 8.17 |
| O=C(c1ccccc1F)N1CCc2ccccc21 | 8.75 |
| Cc1ccc(CNC(=O)CCCn2c(=O)c3ccccc3n(CC(=O)NCc3ccco3)c2=O)cc1 | 2.36 |
| COc1cccc(COCC(O)Cn2cnc3cc(C)c(C)cc32)c1.O=C(O)C(=O)O (centres unmarked) | 11.9 |
| COc1ccc(OC)c(S(=O)(=O)NCC(=O)O)c1 | 13.4 |
| COc1ccc2c(c1)Cc1sc(NC(=O)c3ccco3)nc1-2 | 11.6 |
| Cc1cccc(-c2noc(CCCC(=O)Nc3ccc(C(N)=O)cc3)n2)c1 | 10.6 |
| Cc1c(Br)c([N+](=O)[O-])nn1CC(=O)Nc1ccc(C(C)C)cc1 | 14.6 |
